About 120 (0.25%) of roughly 48,000 compounds were called active. Not shown: some 4% with an inconclusive outcome. The call rests on the fitted dose curve; in most records, active means well fitted activation curve with a large enough effect; inconclusive means small, poorly fitted or top-dose-only effect, or another doubt; inactive means no such curve, though single readings can be large or run the other way. The list shows a part of the results.

The values that follow come from PubChem BioAssay AID1508624 (National Center for Advancing Translational Sciences (NCATS), 2021).

A short description of the test: Primary qHTS for Identification of Small Molecule Activators of Huntingtin-Antisense Promoter Activity. Further: nearly all actives have a fitted effect of over 55% in size. Conditions: HEK293 HTT-AS promoter firefly luciferase reporter, 24 h; series mostly up to 57.5 µM; activity change, positive = activation: at the top concentration. The text has this: Assay Provider: Russell L. Margolis M.D.
Department Neurology, Johns Hopkins University School of Medicine, Baltimore, MD
Huntington's Disease (HD) is a neurodegenerative disorder caused by a CAG repeat expansion in exon 1 of huntingtin (HTT). While there are currently no disease-modifying treatments for HD, recent efforts have focused on development of nucleotide-based therapeutics to lower HTT expression. As an alternative to siRNA or oligonucleotide methods, we hypothesized that suppression of HTT expression might be accomplished by small molecules that either (1) directly decrease HTT expression by suppressing HTT promoter activity or (2) indirectly decrease HTT expression by increasing the promoter activity of HTT-AS, the gene antisense to HTT that appears to inhibit expression of HTT.
We developed and employed a high throughput screen for modifiers of HTT and HTT-AS promoter activity using luminescent reporter HEK293 cells; of the 52,041 compounds tested, we identified 898 replicable hits. We used a rigorous stepwise approach to assess compound toxicity and the capacity of the compounds to specifically lower huntingtin protein in 5 different cell lines, including HEK293 cells, HD lymphoblastoid cells, mouse primary neurons, HD iPSCs differentiated into cortical-like neurons, and HD hESCs. We found no compounds which were able to lower huntingtin without lowering cell viability in all assays, though the potential efficacy of a few compounds at non-toxic doses could not be excluded.
SEQUENCE No. (1, 2, 3, etc.); […] (e.g., Cells, Incubation, Reagent, etc.); VALUE and DESCRIPTION.
1; Reagent; 4 uL; 2,500 Hek293 luciferase reporter cells per wells
3; Compound; 23 nL; Control inhibitor / compound library
5; Reagent; 2.5 uL; Firefly Luc reagent; Dual-Glo Luciferase Reporter Assay System (Promega)
6; Time; 10 min; room temperature incubation
7; Detection; Luminescence; FLuc
NOTES (numbers refer to sequence above)
1; High-throughput screening, measuring luminescence from a Hek293 luciferase reporter, was performed in 1,536 well white-walled tissue-culture treated plates. 2,500 cells were plated in 4 µL of Opti-MEM per well using a Multidrop Combi Reagent Dispenser (ThermoFisher).
2; Assay plates were cultured for 24 hours.
3; Control inhibitor (PTC124; final concentration of 50 uM) and compound library (at final concentrations of 460 nM - 57.5 uM) were added to the assay plate using the Kalypsis Pintool Robotic System equipped with 1536 pinheads.
4; Cells were then incubated for 24 hours at 37 degrees C prior to luminescence measurements.
5; In all cases, luminescence was measured using the Dual-Glo Luciferase Reporter Assay System (Promega) following the manufacturer's instructions.
6; Room temperature incubation.
7; Luminescence signal was obtained using the PerkinElmer ViewLux plate reader. Results were normalized to vehicle control (0% activity) and zero RLU (-100% activity).
(qHTS replaces the single test concentration by a dilution series.)
As to `Cc1ccc(C(=O)NCC(c2cccnc2)N2CCc3ccccc3C2)cc1C` (configuration not stated), the “activity change, positive = activation” value was inactive: -52.1%.
In the case of `CCOc1ccc(C(=O)c2c(N)c(-c3nc(-c4ccc(OCC)cc4)cs3)c3ccccn23)cc1` it was inactive: 7.26%; in that of `CCOc1ccc(N2CC(c3nc4ccccc4n3CCOc3ccccc3)CC2=O)cc1` (configuration not stated), inactive: -18.8%.
As to `Cc1nn(-c2ccccc2)c2sc(C(=O)Nc3cccc(Br)c3)cc12`, the “activity change, positive = activation” value was inactive: -22%.
Turning to `Cc1nc2ncnn2c(C)c1CCC(=O)NCc1cccc(Cl)c1`, the “activity change, positive = activation” value is inactive: -6.98%.
On to `Cc1ccc(NC(=O)c2cc(S(=O)(=O)N3CCCCC3)c[nH]2)cc1F`, for which the “activity change, positive = activation” value is inactive: -11.2%.
Regarding `COc1ccc(C2C=C(c3ccccc3)Nc3nc(NC(=O)/C=C/c4ccc(Cl)cc4)nn32)cc1` (configuration not stated), the “activity change, positive = activation” value is inactive: -16.3%.
As to `CCN1C(=O)c2ccccc2Sc2ccc(NC(=O)c3ccc(C#N)cc3)cc21`, the “activity change, positive = activation” value was inactive: -10.2%.
For `O=C1NC(c2ccccc2)(c2ccccc2)C(=O)N1COP(=O)(O)O`, the “activity change, positive = activation” value was inactive: -0.297%.
The figure for `CN(C(=O)Cn1nnc(-c2ccc(S(C)(=O)=O)cc2)n1)c1ccccc1` is inactive: -10.1%; for `Cc1c(C(=O)N(C)C)sc2c1c(=O)n(-c1ccccc1C(F)(F)F)c(=O)n2Cc1cccc(F)c1` it is inactive: -8.21%.
The figure for `COc1ccc(C(=O)Nc2nc3c(s2)Cc2cc(OC)ccc2-3)cc1` is inactive: -29.7%; for `COc1ccc(NC(=O)CSc2oc(-c3ccco3)nc2S(=O)(=O)c2ccccc2)c(OC)c1` it is inactive: -11.5%; for `O[C@@H]1CO[C@H]2[C@@H]1OC[C@@H]2O` it is inactive: -6.05%.
The figure for `CCOC(=O)CSc1nc2c(sc3ccccc32)c(=O)n1Cc1ccc(OC)cc1` is inactive: -15.7%; for `Cc1cccc(NC(=O)c2sc(-n3nc(C)c(CCC(C)C)c3C)nc2C)c1` it is inactive: 3.62%; for `Cc1ccc2c(c1)N(C(=O)N1CCC(C(=O)NCc3ccccc3F)CC1)CC(C)O2` (configuration not stated) it is inactive: -23.3%.
For `COc1ccc(OC)c(NC(=O)N2CCN(Cc3nc4ccc(C)cc4o3)CC2)c1`, the “activity change, positive = activation” value is inactive: -16%.
Turning to `COc1ccc(CCNc2nc3cc(OC)c(OC)cc3c3nc(-c4cccnc4)nn23)cc1OC`, the “activity change, positive = activation” value was inactive: -15.7%.
As for `O=S(=O)(c1ccccc1)c1nc(-c2ccccc2F)oc1N1CCOCC1`, the “activity change, positive = activation” value was inactive: -17.6%.
As to `COc1ccc(-c2cn3c(n2)sc2cc(C(=O)Nc4ccc(C)cc4C)ccc23)cc1`, the “activity change, positive = activation” value was inactive: 12.4%.
With `COc1cc2ccccc2cc1C(=O)Nc1ccc2oc(-c3cccc(C)c3)nc2c1`, the “activity change, positive = activation” value is inactive: -3.32%.
Consider `CCOc1ccc(NC(=O)CCSc2nc(-c3ccc4c(c3)OCO4)cc(C(F)(F)F)n2)cc1`, for which the “activity change, positive = activation” value was inactive: -4.91%.
As for `Cc1cc(-n2nc3ccc(Cl)cc3n2)c(O)c(C(C)(C)C)c1`, the “activity change, positive = activation” value is inactive: 5.21%.
In the case of `COc1ccc(-n2c3c(cc(-c4nc(-c5ccc(Cl)cc5)cs4)c2=O)C(=O)CC(C)(C)C3)cc1Cl` it was inactive: -9.94%; in that of `CCOc1ccc(NC(=O)CCNS(=O)(=O)c2cccc3nsnc23)cc1`, inactive: -1.2%.
Regarding `CCc1cccc(C)c1NC(=O)C(CC)Sc1nncn2c1cc1occc12` (configuration not stated), the “activity change, positive = activation” value is inactive: -19.3%.
The figure for `CCC(=O)Nc1cc(-c2nc3ccccc3s2)c(Cl)cc1Cl` is inactive: -5.77%; for `Cc1ccc(Nc2nc(C)c(NC(=O)c3ccc(C)cc3)c(Nc3ccc(C)cc3)n2)cc1` it is inactive: -37%.
For the compound `CCS(=O)(=O)N1CCc2cc(C(=O)Nc3cc(OC)c(Cl)cc3OC)ccc21`, the “activity change, positive = activation” value is inactive: -12.2%.
With `CCOc1ccc(C(=O)Nc2ccc3oc(-c4ccncc4)nc3c2)cc1`, the activity change, positive = activation is inactive: 7.72% [at 11.5 µM, percent change from vehicle, -100% = no light].
In the case of `COc1ccc(NC(=O)c2oc3ccccc3c2NC(=O)COc2ccc(F)cc2)c(OC)c1`, the “activity change, positive = activation” value was inactive: 0.568%.
As to `CCCNc1nc2c(c(=O)n(C)c(=O)n2C)n1CC(O)COc1ccccc1` (configuration not stated), the “activity change, positive = activation” value was inactive: -12.4%.
In the case of `CN1[C@H]2CC(OC(=O)[C@@H](CO)c3ccccc3)C[C@H]1[C@H]1O[C@H]12` (some centres not stated) it was inactive: -3.85% [at 25.1 µM, percent change from vehicle, -100% = no light]; in that of `Cc1ccc(NC(=O)Cn2cc(C(=O)C3CCCCC3)c3ccccc32)c(C)c1`, inactive: -24.1%.
In the case of `Cc1cccc(C(=O)Nc2nnc(S(=O)(=O)N3CCCc4ccccc43)s2)c1` it was inactive: -69%.
In the case of `Cc1ccc(-c2nnc(Nc3cccc(Br)c3)c3ccccc23)cc1S(=O)(=O)NCC1CCCO1` (configuration not stated) it was inactive: -30.2%; in that of `O=C(c1ccc2c(c1)N(Cc1ccc(Cl)cc1)C(=O)c1ccccc1S2(=O)=O)N1CCc2ccccc21`, inactive: -24.4%.
Take `Cc1ccc(NC(=O)CCCn2nc(C)c3sc4ccccc4c3c2=O)c(Cl)c1`: the “activity change, positive = activation” value is inactive: -4.31%.
With `COC(=O)c1ccccc1NC(=O)CSc1nnc2cc(C)c3cc(C)cc(C)c3n12`, the “activity change, positive = activation” value was inactive: -16.4%.
Take `CCC(C(=O)Nc1cccc(C#N)c1)n1nc(-c2ccccc2)ccc1=O` (configuration not stated): the “activity change, positive = activation” value is inactive: -30.5%.
Turning to `O=C(NCc1ccc(F)cc1)C(=O)NCC(c1ccco1)S(=O)(=O)c1cccs1` (configuration not stated), the “activity change, positive = activation” value was inactive: -17.8%.
For the compound `O=C(Cn1ccc2cc(S(=O)(=O)N3CCCC3)ccc21)NCc1ccccc1Cl`, the “activity change, positive = activation” value is inactive: -21.5%.
As to `CCN1c2ccccc2-c2nc(SCC(=O)Nc3cc(F)ccc3F)ncc2S1(=O)=O`, the “activity change, positive = activation” value was inactive: -17.4%.
On to `CCOC(=O)N1CCc2c(sc3c2c(=O)n(-c2ccc(F)cc2)c(=O)n3CC(=O)c2ccccc2)C1`, for which the “activity change, positive = activation” value was inactive: -5.42%.
For the compound `Cc1cccc(CN2C(=O)c3ccccc3Sc3ccc(C(=O)NCc4cccs4)cc32)c1`, the “activity change, positive = activation” value is inactive: -23.1%.
For the compound `CCOC(=O)c1c(C)n(-c2ccccc2)c2ccc(OC(=O)c3cc(OC)cc(OC)c3)cc12`, the activity change, positive = activation was inactive: -3.52% [at 11.5 µM, percent change from vehicle, -100% = no light].
